According to patent US9809808B2, “Antimicrobial agents” (KATHOLIEKE UNIVERSITEIT LEUVEN K.U. LEUVEN R&D, priority 2008, dated 2017):
Residue numbers refer to the chain shown, from its start. “And” between values parts separate entries of the source, which are not always exact repeats. Equal values may be shown once.

Key:
Assay type in all cases: cell-based, Pseudomonas aeruginosa
P. aeruginosa PAO1p [1] = assay: Antibacterial activity of PSP3gp10 and PKPSP3gp10 with and without EDTA (30 minutes, colony count); details: for relative inactivation in logarithmic units (log10N0/Ni): 30 minutes; for interaction of EDTA with the endolysin (in words): PAO1p
P. aeruginosa PAO1p [2] = assay: Antibacterial activity of P2gp09 and PKP2gp09 with and without EDTA (30 minutes, colony count); details: 30 minutes
[3] = test system: P. aeruginosa PAO1p cells; assay: Antibacterial activity of unmodified and modified phiKZgp144 and ELgp188 (colony count after 1 hour); details: for reduction of cell numbers compared to the negative control (in words): 100 μg/ml, student's t-test, α=0.05; for reduction of cell numbers compared to the negative control (in words) / antibacterial activity as relative inactivation (%) / antibacterial activity in logarithmic units (log10N0/Ni): 1 hour; for antibacterial activity as relative inactivation (%) / antibacterial activity in logarithmic units (log10N0/Ni): exponentially growing cells, 100 μg/ml undialyzed protein, room temperature
[4] = 1.315 μM endolysin + 0.5 mM EDTA

B1: PKPSP3gp10: SEQ ID NO: 53: PSP3gp10 (SEQ ID NO: 8) with N-terminal peptide stretch KRKKRKKRK (SEQ ID NO: 11) (protein)
chain: MGSKRKKRKKRKPVINTHQNIAAFLDMLAYSEGTANHPLTKNRGYDVIVTGFDGSPEIFTDYSDHPFAHGRPPKVFNRRGEKSTASGRYQQLYIFWPHYKKQLALPDFSPLSQDKLAIQLIRERGAIDDIRAGRIERAVSRCRNIWASLPGAGYGQREHSLEKLVTVWRTAGGVMA
modifications: PKPSP3gp10
For B1, the “relative inactivation in logarithmic units (log10N0/Ni)” value (“relative inactivation … (log10N0/Ni)” below) (P. aeruginosa PAO1p [1]; [4]) was over 4.146 logarithmic units, the “relative inactivation … (log10N0/Ni)” value (P. aeruginosa PAO1p [1]; 1.315 μM endolysin, no EDTA) was 0.344 +/− 0.163 logarithmic units and the “interaction of EDTA with the endolysin (in words)” value (P. aeruginosa PAO1p [1]; [4]) was “synergistically”.

B2: PSP3gp10: SEQ ID NO: 8: unmodified globular endolysin with 165 amino acid residues originating from Salmonella typhimurium phage PSP3 (protein)
chain: MPVINTHQNIAAFLDMLAYSEGTANHPLTKNRGYDVIVTGFDGSPEIFTDYSDHPFAHGRPPKVFNRRGEKSTASGRYQQLYIFWPHYKKQLALPDFSPLSQDKLAIQLIRERGAIDDIRAGRIERAVSRCRNIWASLPGAGYGQREHSLEKLVTVWRTAGGVMA
modifications: PSP3gp10
B2 was tested, and the “relative inactivation … (log10N0/Ni)” value (P. aeruginosa PAO1p [1]; [4]) was 3.552 +/− 0.536 logarithmic units, the “relative inactivation … (log10N0/Ni)” value (P. aeruginosa PAO1p [1]; 1.315 μM endolysin, no EDTA) was 0.383 +/− 0.015 logarithmic units and the “interaction of EDTA with the endolysin (in words)” value (P. aeruginosa PAO1p [1]; [4]) was “synergistically”.

B3: P2gp09: SEQ ID NO: 9: unmodified globular endolysin of 165 amino acid residues originating from Escherichia coli phage P2 (protein)
chain: B2 chain with Y19V, F41L, S44K, P62A, I83L, K89R, K104R, I116L, V128I, M164P
modifications: P2gp09
In the case of B3, the “relative inactivation … (log10N0/Ni)” value (P. aeruginosa PAO1p [2]; [4]) is reported as 2.840 logarithmic units and the “relative inactivation … (log10N0/Ni)” value (P. aeruginosa PAO1p [2]; 1.315 μM endolysin, no EDTA) is reported as 0.374 logarithmic units.

B4: (POLY)^2-gp188: SEQ ID NO: 40: ELgp188 with N-terminal peptide stretch SEQ ID NO: 21 (protein)
chain: MGSKRKKRKKRKRSKRKKRKKRKNFRTKNGYRDLQALVKELGLYTGQIDGVWGKGTSSSTETLLRGYAEVVGKNTGGIGLPTTSDASGYNVITALQRNLAFLGLYSLTVDGIWGNGTLSGLDKAFEVYKERYRTPTYDIAWSGKVSPAFTAKVKDWCGVHVPNHRAPHWLMACMAFETGQTFSPSIKNAAGSEAYGLIQFMSPAANDLNVPLSVIRSMDQLTQLDLVFKYFEMWMKRGKRYTQLEDFYLTIFHPASVGKKADEVLFLQGSKAYLQNKGFDVDKDGKITLGEISSTLYTTYYKGLLPENRHVISY
modifications: (POLY)2-gp188
B4 was tested, and the “reduction of cell numbers compared to the negative control (in words)” value (from here on “reduction of cell numbers”) [3] was “significant reduction”, the “antibacterial activity as relative inactivation (%)” value [3] was 98.9 ± 0.4% and the “antibacterial activity in logarithmic units (log10N0/Ni)” value (“antibacterial activity … (log10N0/Ni)” below) [3] was 2.0 ± 0.2 log.

B5: (POLY)^2-gp144: SEQ ID NO: 36: phiKZgp144 with N-terminal peptide stretch SEQ ID NO: 21 (protein)
chain: MGSKRKKRKKRKRSKRKKRKKRKKVLRKGDRGDEVCQLQTLLNLCGYDVGKPDGIFGNNTFNQVVKFQKDNCLDSDGIVGKNTWAELFSKYSPPIPYKTIPMPTANKSRAAATPVMNAVENATGVRSQLLLTFASIESAFDYEIKAKTSSATGWFQFLTGTWKTMIENYGMKYGVLTDPTGALRKDPRISALMGAELIKENMNILRPVLKREPTDTDLYLAHFFGPGAARRFLTTGQNELAATHFPKEAQANPSIFYNKDGSPKTIQEVYNLMDGKVAAHRK
modifications: (POLY)2-gp144
For B5, the “reduction of cell numbers” value [3] was “significant reduction” and the “antibacterial activity … (log10N0/Ni)” value [3] was ≤ 3.7±0.3 log and 3.7 ± 0.3 log.

B6: POLY-gp188: SEQ ID NO: 39: ELgp188 (SEQ ID NO: 2) with N-terminal peptide stretch KRKKRKKRK (SEQ ID NO: 11) (protein)
chain: MGSKRKKRKKRKNFRTKNGYRDLQALVKELGLYTGQIDGVWGKGTSSSTETLLRGYAEVVGKNTGGIGLPTTSDASGYNVITALQRNLAFLGLYSLTVDGIWGNGTLSGLDKAFEVYKERYRTPTYDIAWSGKVSPAFTAKVKDWCGVHVPNHRAPHWLMACMAFETGQTFSPSIKNAAGSEAYGLIQFMSPAANDLNVPLSVIRSMDQLTQLDLVFKYFEMWMKRGKRYTQLEDFYLTIFHPASVGKKADEVLFLQGSKAYLQNKGFDVDKDGKITLGEISSTLYTTYYKGLLPENRHVISY
modifications: POLY-gp188
For B6, the “reduction of cell numbers” value [3] was “significant reduction”, the “antibacterial activity as relative inactivation (%)” value [3] was 98.0±0.2% and the “antibacterial activity … (log10N0/Ni)” value [3] was 1.7 ± 0.1 log.

B7: POLY-gp144: SEQ ID NO: 35: phiKZgp144 (SEQ ID NO: 1) with N-terminal peptide stretch KRKKRKKRK (SEQ ID NO: 11) (protein)
chain: MGSKRKKRKKRKKVLRKGDRGDEVCQLQTLLNLCGYDVGKPDGIFGNNTFNQVVKFQKDNCLDSDGIVGKNTWAELFSKYSPPIPYKTIPMPTANKSRAAATPVMNAVENATGVRSQLLLTFASIESAFDYEIKAKTSSATGWFQFLTGTWKTMIENYGMKYGVLTDPTGALRKDPRISALMGAELIKENMNILRPVLKREPTDTDLYLAHFFGPGAARRFLTTGQNELAATHFPKEAQANPSIFYNKDGSPKTIQEVYNLMDGKVAAHRK
modifications: POLY-gp144
In the case of B7, the “reduction of cell numbers” value [3] is reported as “significant reduction”, the “antibacterial activity as relative inactivation (%)” value [3] is reported as 99.85±0.09% and the “antibacterial activity … (log10N0/Ni)” value [3] is reported as 2.9±0.3 log. The “inactivation level in log units” value ([3]; protein dialyzed to 50 mM KH2PO4/K2HPO4 pH 7 instead of undialyzed) was 3.9±0.2 log units.

B8: ELgp188: SEQ ID NO: 2: unmodified modular endolysin originating from Pseudomonas aeruginosa phage EL (protein)
chain: MNFRTKNGYRDLQALVKELGLYTGQIDGVWGKGTSSSTETLLRGYAEVVGKNTGGIGLPTTSDASGYNVITALQRNLAFLGLYSLTVDGIWGNGTLSGLDKAFEVYKERYRTPTYDIAWSGKVSPAFTAKVKDWCGVHVPNHRAPHWLMACMAFETGQTFSPSIKNAAGSEAYGLIQFMSPAANDLNVPLSVIRSMDQLTQLDLVFKYFEMWMKRGKRYTQLEDFYLTIFHPASVGKKADEVLFLQGSKAYLQNKGFDVDKDGKITLGEISSTLYTTYYKGLLPENRHVISY
modifications: ELgp188
For B8, the “reduction of cell numbers” value [3] was “do not reduce cell numbers significantly”, the “antibacterial activity as relative inactivation (%)” value [3] was 10 ± 13% and the “antibacterial activity … (log10N0/Ni)” value [3] was 0.05 ± 0.06 log.
